Source: PubChem BioAssay (Tox21)
Where “and” joins values, the source holds several entries; their conditions need not be identical. Equal entries are not always repeated. The inconclusive results got no clear call from the source; some entries with a clear call stand among them for comparison. For some assays here: A potency beside an inconclusive call is a rough fit, not a confirmed value. Some structures have more than one record in an assay (separate samples or runs), and their calls can disagree. Calls of active or inactive are those of the source. Unless noted, calls come from the whole dose curve; as a rule, active = well fitted curve in the direction sought with a large enough effect in the repeat runs; inconclusive = weak or mixed curves; inactive = no such curve, though single readings can be large; an effect the other way counts as inactive or inconclusive.

Experiments:
[1] = qHTS assay for identifying genotoxic compounds that show differential cytotoxicity against isogenic chicken DT40 cell lines with known DNA damage response pathways - Rev3 mutant cell line (AID 743014); details: chicken DT40 Rev3-/- viability, CellTiter-Glo, 40 h; activity, negative = cytotoxicity: at 68.4 µM (top of the series) unless noted; note: nearly all actives have a fitted effect of over 55% in size; note: potency is the fitted concentration of half-maximal effect
[2] = qHTS assay to identify small molecule antagonists of the thyroid receptor (TR) signaling pathway - cell viability counter screen (AID 743064); details: GH3.TRE-Luc viability, CellTiter-Fluor, 24 h; activity change, negative = cytotoxic: at 70.3 µM (top of the series) unless noted; note: nearly all actives have a fitted effect of over 50% in size; note: potency is the fitted concentration of half-maximal effect; for activity change, negative = cytotoxic: % is set by controls: 0 for no effect and ±100 for the full control effect
Method in brief: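 In rat pituitary GH3.TRE-Luc reporter cells co-exposed to compound and 1 nM T3 for 23.5 h, cytotoxicity was assessed with CellTiter-Fluor in the same wells, read by fluorescence.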

[3] = target: Estrogen receptor (Homo sapiens) (UniProt P03372); experiment: qHTS assay to identify small molecule antagonists of the estrogen receptor alpha (ER-alpha) signaling pathway (AID 743069; active = well fitted curve in the direction sought with a large enough effect in the signal ratio in the repeat runs, not every such curve was filed as active; inconclusive = weak or mixed curves, or effect the other way; inactive = no such curve, though single readings can be large or run the other way; the % refers to the signal ratio; note: potency is the fitted concentration of half-maximal effect); details: HEK293 ER-alpha-UAS-bla, beta-lactamase ratio, antagonist mode; activity, negative = inhibition: at 69.4 µM (top of the series) unless noted
Chain of UniProt P03372 (P03372 whole entry, looked up): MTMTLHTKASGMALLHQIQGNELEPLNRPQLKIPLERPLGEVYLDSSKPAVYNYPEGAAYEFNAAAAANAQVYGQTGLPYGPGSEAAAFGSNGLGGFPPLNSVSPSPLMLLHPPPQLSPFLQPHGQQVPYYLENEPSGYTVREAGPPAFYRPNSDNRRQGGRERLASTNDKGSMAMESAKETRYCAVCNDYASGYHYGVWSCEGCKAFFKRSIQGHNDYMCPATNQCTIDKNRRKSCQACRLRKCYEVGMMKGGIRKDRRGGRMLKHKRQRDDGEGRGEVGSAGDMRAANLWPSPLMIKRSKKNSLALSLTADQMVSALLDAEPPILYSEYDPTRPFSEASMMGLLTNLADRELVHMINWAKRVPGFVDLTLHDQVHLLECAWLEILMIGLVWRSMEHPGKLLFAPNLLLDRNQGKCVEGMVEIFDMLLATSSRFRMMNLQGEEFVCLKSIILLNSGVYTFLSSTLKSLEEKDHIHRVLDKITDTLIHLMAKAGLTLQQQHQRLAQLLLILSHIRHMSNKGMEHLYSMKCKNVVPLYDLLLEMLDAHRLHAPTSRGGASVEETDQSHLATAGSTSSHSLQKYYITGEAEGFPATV
Method in brief: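 Estradiol-stimulated ER-alpha-UAS-bla HEK293 cells, 18 hr compound exposure at 37C. LiveBLAzer B/G substrate, 2 hr RT, fluorescence read.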

[4] = target: Estrogen receptor (Homo sapiens) (UniProt P03372); experiment: qHTS assay to identify small molecule agonists of the estrogen receptor alpha (ER-alpha) signaling pathway using the BG1 cell line (AID 743079); details: BG1Luc4E2 cells, ERE-luciferase agonist, 22 h; note: nearly all actives have a fitted effect of over 20% in size; note: potency is the fitted concentration of half-maximal effect
[5] = qHTS assay to identify small molecule antagonists of the estrogen receptor alpha (ER-alpha) signaling pathway using the BG1 cell line (AID 743080; calls by dose curve;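 note: BG1 cells stimulated with 17beta-estradiol alongside compound; nearly all actives have a fitted effect of over 25% in size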; note: potency is the fitted concentration of half-maximal effect); details: BG1Luc4E2 ERE-luciferase antagonist mode, luminescence; activity change, negative = inhibition: at 70.3 µM (top of the series) unless noted
Method in brief: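 BG1-Luc-4E2 cells (endogenous full-length ER-alpha, stable 4×ERE-luciferase) were starved 5 days in phenol-red-free medium with 10% charcoal-stripped FBS, plated 24 h, then given compound plus 17beta-estradiol for 21.5 h at 37 C; ONE-Glo luminescence read after 30 min.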

[6] = qHTS assay to identify small molecule antagonists of the estrogen receptor alpha (ER-alpha) signaling pathway - cell viability counter screen (AID 743074; calls by dose curve;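 note: HEK293 cells carrying ER-alpha-UAS-bla reporter stimulated with 17beta-estradiol; nearly all actives have a fitted effect of over 45% in size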; note: potency is the fitted concentration of half-maximal effect; for activity, negative = cytotoxicity: % is set by controls: 0 for no effect and ±100 for the full control effect)
[7] = qHTS assay to identify small molecule antagonists of the estrogen receptor alpha (ER-alpha) signaling pathway using the BG1 cell line - cell viability counter screen (AID 743081);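 note: compound given together with 17beta-estradiol as the ER stimulus; nearly all actives have a fitted effect of over 45% in size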; note: potency is the fitted concentration of half-maximal effect; for activity change, negative = cytotoxicity: % is set by controls: 0 for no effect and ±100 for the full control effect
Aromatase (Homo sapiens) = Aromatase (Homo sapiens) (UniProt P11511); experiment: qHTS assay to identify aromatase inhibitors (AID 743083); note: nearly all actives have a fitted effect of over 55% in size; note: potency is the fitted concentration of half-maximal effect
Chain of UniProt P11511 (P11511 whole entry, looked up): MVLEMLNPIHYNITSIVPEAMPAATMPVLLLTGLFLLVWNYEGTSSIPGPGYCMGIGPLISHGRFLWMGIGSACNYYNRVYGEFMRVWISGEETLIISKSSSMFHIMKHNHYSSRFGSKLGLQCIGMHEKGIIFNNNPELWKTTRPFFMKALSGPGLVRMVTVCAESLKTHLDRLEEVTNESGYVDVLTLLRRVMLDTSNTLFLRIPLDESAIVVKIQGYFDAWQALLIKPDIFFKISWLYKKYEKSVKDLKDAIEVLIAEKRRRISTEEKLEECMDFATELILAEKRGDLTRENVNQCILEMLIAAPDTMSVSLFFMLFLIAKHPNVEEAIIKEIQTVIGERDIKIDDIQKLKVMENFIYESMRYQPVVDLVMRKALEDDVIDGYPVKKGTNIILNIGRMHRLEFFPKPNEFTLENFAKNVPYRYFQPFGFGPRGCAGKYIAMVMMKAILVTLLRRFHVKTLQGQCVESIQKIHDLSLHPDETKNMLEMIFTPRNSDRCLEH

[8] = target: Androgen receptor (Homo sapiens) (UniProt P10275); experiment: qHTS assay to identify small molecule antagonists of the androgen receptor (AR) signaling pathway (AID 743035; active = well fitted inhibition curve with a large enough effect in the signal ratio in the repeat runs, not every such curve was filed as active; inconclusive = weak or mixed curves, or effect the other way; inactive = no such curve, though single readings can be large or run the other way; the % refers to the signal ratio; note: % is set by controls: 0 for no effect and ±100 for the full control effect); details: HEK293 AR-UAS-bla, R1881-stimulated, beta-lactamase FRET, 16 h; activity change, negative = inhibition: at 58.5 µM (top of the series) unless noted
Chain of UniProt P10275 (P10275 whole entry, looked up): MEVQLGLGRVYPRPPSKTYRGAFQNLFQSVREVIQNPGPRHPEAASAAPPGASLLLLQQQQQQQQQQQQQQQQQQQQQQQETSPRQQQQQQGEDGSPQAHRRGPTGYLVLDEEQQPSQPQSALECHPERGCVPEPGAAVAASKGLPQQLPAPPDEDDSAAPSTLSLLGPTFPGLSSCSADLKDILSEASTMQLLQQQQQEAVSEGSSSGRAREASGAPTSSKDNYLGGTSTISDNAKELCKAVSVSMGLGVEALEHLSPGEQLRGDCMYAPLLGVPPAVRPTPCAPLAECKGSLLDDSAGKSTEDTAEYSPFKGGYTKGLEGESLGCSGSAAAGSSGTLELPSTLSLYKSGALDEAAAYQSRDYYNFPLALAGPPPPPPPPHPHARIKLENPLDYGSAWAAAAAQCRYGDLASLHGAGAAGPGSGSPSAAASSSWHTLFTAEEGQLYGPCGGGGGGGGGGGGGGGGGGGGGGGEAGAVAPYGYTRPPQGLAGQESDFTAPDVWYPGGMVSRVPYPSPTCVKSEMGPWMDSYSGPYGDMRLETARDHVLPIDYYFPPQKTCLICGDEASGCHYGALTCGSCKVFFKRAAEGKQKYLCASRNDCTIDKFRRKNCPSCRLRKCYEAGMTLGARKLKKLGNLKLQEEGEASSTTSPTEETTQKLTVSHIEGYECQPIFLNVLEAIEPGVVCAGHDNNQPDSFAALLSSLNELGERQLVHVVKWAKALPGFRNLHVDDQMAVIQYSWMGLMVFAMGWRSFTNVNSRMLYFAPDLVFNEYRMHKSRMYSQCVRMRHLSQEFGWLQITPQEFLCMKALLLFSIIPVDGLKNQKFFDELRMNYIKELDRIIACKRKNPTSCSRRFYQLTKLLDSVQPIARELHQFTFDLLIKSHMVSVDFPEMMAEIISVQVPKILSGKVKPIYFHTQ
Method in brief: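 HEK293 cells stably carrying UAS-beta-lactamase reporter, 2,000/well, given compounds plus R1881 agonist and incubated 16 h at 37C. LiveBLAzer B/G FRET substrate then added for 2 h at room temperature before fluorescence reading.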

[9] = target: Androgen receptor (Homo sapiens) (UniProt P10275); experiment: qHTS assay to identify small molecule antagonists of the androgen receptor (AR) signaling pathway using the MDA cell line (AID 743042; note: potency is the fitted concentration of half-maximal effect; nearly all actives have a fitted effect of over 55% in size)
Method in brief: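 MDA-kb2 cells (human breast carcinoma, stably carrying an MMTV-luciferase reporter responsive to AR and GR) were plated at 3,000 cells/well and preincubated 5 hr at 37C, then given compound plus R1881 agonist for 16 h. ONE-Glo luminescence was read.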

[10] = target: Estrogen receptor (Homo sapiens) (UniProt P03372); experiment: qHTS assay to identify small molecule agonists of the estrogen receptor alpha (ER-alpha) signaling pathway (AID 743075; calls by dose curve;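 note: HEK293 GripTite cells with ER-alpha and UAS-driven beta-lactamase reporter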; note: potency is the fitted concentration of half-maximal effect)
[11] = qHTS assay to identify small molecule antagonists of the thyroid receptor (TR) signaling pathway (AID 743065); note: potency is the fitted concentration of half-maximal effect; nearly all actives have a fitted effect of over 55% in size
Method in brief: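 GH3.TRE-Luc rat pituitary cells carrying two TR response elements driving luciferase were plated for 4 h, given compound plus 1 nM T3 (final), and incubated 23.5 h at 37 C. ONE-Glo luminescence measured reporter inhibition; CellTiter-Fluor fluorescence tracked cytotoxicity.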

[12] = tested on: thyroid hormone receptor (rat, GH3 cells); experiment: qHTS assay to identify small molecule agonists of the thyroid receptor (TR) signaling pathway (AID 743066; calls by dose curve; note: potency is the fitted concentration of half-maximal effect); details: GH3.TRE-Luc cells, TR agonist luciferase, 24 h; activation: at 83.9 µM (top of the series) unless noted
[13] = qHTS assay to identify aromatase inhibitors - cell viability counter screen (AID 743084); details: MCF-7 aro ERE viability, CellTiter-Fluor, 24 h; activity change, negative = cytotoxicity: at 70.3 µM (top of the series); note: potency is the fitted concentration of half-maximal effect
[14] = qHTS assay for identifying genotoxic compounds that show differential cytotoxicity against isogenic chicken DT40 cell lines with known DNA damage response pathways - Rad54/Ku70 mutant cell line (AID 743015); details: DT40 Rad54/Ku70 mutant viability, CellTiter-Glo, 40 h; activity change, negative = cytotoxicity: at 66.8 µM (top of the series); note: nearly all actives have a fitted effect of over 60% in size; note: potency is the fitted concentration of half-maximal effect
[15] = activation: at 70.3 µM (top of the series) unless noted
Tags give direction and shape of the fitted curve or compound fluorescence and quenching.

CCc1ccc2c(c1)C(=O)c1ccccc1C2=O
Potency [1]: inconclusive: 10.9 µM [cytotoxic, partial curve] | Potency [2]: inactive | Potency [3]: inconclusive: 1.38 µM [activator, full curve] | Potency [4, 15]: active: 27.3 µM | Potency [5]: inconclusive: 3.44 µM [rising, full curve]

Nc1nc(Cl)nc2c1ncn2[C@@H]1O[C@H](CO)[C@@H](O)[C@@H]1F
Potency [1]: active: 0.0019 µM | Potency [2]: active: 0.237 µM | Potency [3]: inconclusive: 19 µM [partial curve, poor fit] | Potency [6]: inconclusive: 0.169 µM [cytotoxic, full curve, poor fit] | Potency [5]: active: 3.76 µM | Potency [7]: inactive | Potency (Aromatase (Homo sapiens)): inconclusive: 6.68 µM [inhibitor, partial curve]

CC1(C)CCC(C)(C)c2cc(NC(=O)c3ccc(C(=O)O)cc3)ccc21
Potency [1]: inconclusive: 33.5 µM [cytotoxic] | Potency [2]: inconclusive: 9.44 µM [cytotoxic] | Potency (Aromatase (Homo sapiens)): inconclusive: 0.0027 µM [inhibitor, full curve]

CCN[C@@H]1C[C@H](N)[C@@H](OC2OC(CN)=CCC2N)[C@H](O)[C@H]1O[C@H]1OC[C@](C)(O)[C@H](NC)[C@H]1O (some centres undefined)
Potency [1]: inconclusive: 18.8 µM [rising, partial curve, poor fit] | Potency [2]: inactive | Potency [6]: inactive

CCCCCCCCSCCO
Potency [1]: inconclusive: 21.7 µM [cytotoxic, partial curve] | activity change, negative = inhibition [8]: inconclusive: -21.7% | Potency [2]: inactive

Nc1nc2ncc(CNc3ccc(C(=O)N[C@@H](CCC(=O)O)C(=O)O)cc3)nc2c(=O)[nH]1
Potency [1]: inconclusive: 86.3 µM [cytotoxic, partial curve, poor fit] | Potency [9]: inconclusive: 0.0021 µM [inhibitor, full curve] | Potency [6]: inconclusive: 34.7 µM [rising, partial curve, poor fit]

NC1CCCCC1
Potency [1]: inconclusive: 86.3 µM [cytotoxic, partial curve, poor fit] | Potency [2]: inconclusive: 6.11 µM [rising, single point] | activity, negative = inhibition [3]: inconclusive: 32.6% [at 79.1 µM] | Potency [10]: inconclusive: 2.2 µM [falling, full curve] | activation [4, 15]: inconclusive: -16.7% [phenotype inactive] [at 95 µM] | activation ([4]; at 70.3 µM (top of the series)): inactive: -7.74% and inactive: -0.85% | activation ([4]; at 95 µM (top of the series)): inactive: 4.32%

Cc1c(C)c([N+](=O)[O-])c(C(C)(C)C)c([N+](=O)[O-])c1C
Potency [1]: inconclusive: 13.7 µM [cytotoxic, full curve] | Potency [2]: inconclusive: 68.6 µM [cytotoxic, single point] | Potency [11]: inconclusive: 77 µM [inhibitor, single point] | Potency [12]: inconclusive: 43.3 µM [inhibitor, partial curve, poor fit] | Potency [6]: inconclusive: 2.19 µM [rising, full curve, poor fit] | Potency [7]: inactive | Potency (Aromatase (Homo sapiens)): inconclusive: 30.6 µM [inhibitor, partial curve, poor fit]

OCCc1ccccc1
Potency [1]: inactive | Potency [6]: inconclusive: 0.11 µM [cytotoxic, full curve, poor fit] | Potency [7]: inconclusive: 13.3 µM [cytotoxic, single point]

O=C(O)CN(CCN(CC(=O)O)CC(=O)O)CC(=O)O
Potency [1]: inconclusive: 37.6 µM [rising, partial curve, poor fit] | Potency [13]: inactive

CC(C)C1CCC(C(=O)N[C@H](Cc2ccccc2)C(=O)O)CC1 (some centres undefined)
Potency [1]: inconclusive: 26.6 µM [rising, partial curve, poor fit] | Potency [4, 15]: inactive

Cn1c(=O)cc(Oc2ccc(F)cc2F)c2cnc(NCC(C)(C)O)nc21
Potency [1]: inconclusive: 68.6 µM [cytotoxic, single point] | Potency [4, 15]: inconclusive: 48.6 µM [inhibitor, partial curve] | Potency [13]: inactive

Cc1ccc(Br)cc1
Potency [14]: inactive

CCCCOCCOCCOC(=O)CCCCC(=O)OCCOCCOCCCC
Potency [1]: inactive | Potency [3]: inactive | Potency [6]: inactive | Potency [10]: inconclusive: 55.1 µM [activator, partial curve, poor fit]

OCCCCCO
Potency [1]: inconclusive: 18 µM [cytotoxic, full curve] | Potency [5]: inactive

NC(=O)c1ccc([N+](=O)[O-])cc1
Potency [1]: inactive | Potency [6]: inactive | Potency (Aromatase (Homo sapiens)): inactive

CC1=Nc2ccccc2C1(C)C
Potency [14]: inconclusive: 68.7 µM [cytotoxic, single point]

Cc1c[nH]c2ccccc12
Potency [1]: inactive | Potency [13]: inactive

CCCCCCCCCCCCCCCCCC(=O)OCC(CC)CCCC (centres undefined)
Potency [1]: inactive | Potency [6]: inconclusive: 21.9 µM [cytotoxic, single point] | Potency [13]: inconclusive: 12.2 µM [rising, full curve, poor fit]

CCCCCCC
Potency [1]: inactive | Potency [3]: inactive | Potency [7]: inactive

CCCCOC(=O)CCCCC(=O)OCCCC
Potency [1]: inconclusive: 54.5 µM [cytotoxic, partial curve] | Potency (Aromatase (Homo sapiens)): inconclusive: 30.6 µM [inhibitor, partial curve, poor fit]

Cc1cccc(S(=O)(=O)O)c1C
Potency [1]: inactive | Potency [4, 15]: inactive

CCCC(=O)OCCc1ccccc1
Potency [14]: inconclusive: 68.6 µM [cytotoxic]

CO[C@H]1O[C@H](CO)[C@@H](O)[C@H](O)[C@H]1O
Potency [14]: inactive

CCCCCCCC/C=C\CCCCCCCC(=O)OC[C@@H](O)[C@H]1OC[C@H](O)[C@H]1O
Potency [1]: inactive | Potency [3]: inconclusive: 4.77 µM [inhibitor, full curve, poor fit] | Potency [7]: inconclusive: 13.3 µM [cytotoxic, partial curve, poor fit]

CCCCCCCCCCCCS
Potency [1]: inactive and inconclusive: 48.6 µM [cytotoxic, partial curve] | Potency [3]: inconclusive: 773 nM [activator, full curve] and inactive

O=C(O)C(=O)Cc1c[nH]c2ccccc12
Potency [1]: inactive | Potency [4, 15]: inactive | activity change, negative = inhibition [5]: inconclusive: 4.57% | Potency (Aromatase (Homo sapiens)): inactive

CCOC(=O)/C=C\C(=O)OCC
Potency [14]: inactive

O=[N+]([O-])C(CO)(CO)CO
Potency [1]: inactive and inconclusive: 68.6 µM [cytotoxic, single point] | Potency [6]: inconclusive: 4.82 µM [rising, full curve, poor fit] | Potency [4, 15]: inactive

Cc1ccc(C)c(O)c1
activity, negative = cytotoxicity [1]: inconclusive: -33.6% [cytotoxic] [at 95 µM] | Potency [7]: inactive | Potency [13]: inactive

CC(C)CC(C)CC(O)CC(C)C (centres undefined)
Potency [1]: inconclusive: 68.6 µM [cytotoxic, partial curve, poor fit] | Potency [13]: inactive

CC(C)COC(=O)c1ccc(O)cc1
Potency [14]: inconclusive: 68.5 µM [cytotoxic, single point]

CCCCCCCCCCCCCCN(C)C
Potency [1]: inactive | Potency [3]: inactive | Potency [5]: inactive

CCOC(=O)C1=C(C)NC(C)=C(C(=O)OC)C1c1cccc([N+](=O)[O-])c1 (centres undefined)
Potency [1]: inconclusive: 33.5 µM [cytotoxic, single point] | Potency [4, 15]: inconclusive: 26.6 µM [inhibitor, partial curve, poor fit]

O=C(O)CNCC(=O)O
activity change, negative = cytotoxicity [14]: inactive: 1.1% [at 8.55 µM]

CC(C)(Oc1ccc(Cl)cc1)C(=O)O
Potency [1]: inactive | Potency [6]: inconclusive: 19.5 µM [rising, full curve, poor fit]

CCOC(=O)[C@H](CCc1ccccc1)N[C@@H](C)C(=O)N1C(=O)N(C)C[C@H]1C(=O)O
Potency [1]: inconclusive: 11.9 µM [rising, partial curve, poor fit] | Potency [7]: inconclusive: 1.19 µM [rising, single point]

CC(=O)[O][Al][O]C(C)=O
Potency [14]: inconclusive: 0.243 µM [rising, single point]

Brc1cc(-c2ccc(Br)c(Br)c2Br)cc(Br)c1Br
Potency [1]: inactive | Potency [3]: inconclusive: 21.5 µM [rising, partial curve] | Potency [6]: inactive

C[C@@H]1CN(c2c(F)c(N)c3c(=O)c(C(=O)O)cn(C4CC4)c3c2F)C[C@H](C)N1
Potency [1]: inactive | Potency [4, 15]: inactive

O=C(O)CO
Potency [1]: inactive | Potency [10]: inactive | Potency [4, 15]: inactive

O=c1[nH][nH]c(=O)c2cc([N+](=O)[O-])ccc12
Potency [14]: inactive

C1=CCC2CC=CC2C1 (centres undefined)
Potency [1]: inactive | Potency [6]: inactive

CCC(C)SSC(C)CC (centres undefined)
Potency [1]: inactive | Potency [3]: inconclusive: 61.6 µM [activator, partial curve, poor fit]

C=CCn1c(=O)n(CC=C)c(=O)n(CC=C)c1=O
Potency [1]: inconclusive: 68.4 µM [cytotoxic, single point] | Potency [13]: inactive

CCOC(=O)C(C)C(C)=O (centres undefined)
Potency [14]: inactive
